Test results published in article PMC12136788.
The other results are listed elsewhere or left out.

T1: UNK ZnF1-3 (human, UniProt Q9C0B0 31-174)
T1 sequence: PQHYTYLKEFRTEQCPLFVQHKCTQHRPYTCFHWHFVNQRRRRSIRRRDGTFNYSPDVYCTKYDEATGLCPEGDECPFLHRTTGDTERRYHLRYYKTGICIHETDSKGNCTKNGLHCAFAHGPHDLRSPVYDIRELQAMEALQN

B1: chr5:128440902:128440903:+_ENSG00000066583_ENST00000173527|hu_hu|motif|central (ssRNA)
RNA: GGGAGUUCUACAGUCCGACGAUCUUGAACCGUGCUCCCAAGACCUUUAGGGUAUUGUUCUGUUACAAUAACAGGAAUUCCGGAAAUCCGGGCCCCUUGCAACAAUCUCUGUCCCACGCUAAUAAUAUCCCCAAAAUACUUGAUCAACAGAGGAUUGAGCAUCA
B2: chr17:87533601:87533602:+_ENSMUSG00000037104_ENSMUST00000041369|mus_hu|motif|central (ssRNA)
RNA: GGGAGUUCUACAGUCCGACGAUCUGUUGAAUGUGGGCUCACAGGAGCUGUAUGCUGUUUAAUCAAAUGCCAUUUUUGGGCGGAAUCUGAGCCAGCAGGAAAAGGGCAUUUCUCAAGCAUUAAUUCAGAGAGAUGGAUUUUUCUCAACAGAGGAUUGAGCAUCA
B3: chrX:102632674:102632675:+_ENSG00000166681_ENST00000361298|hu_mus|motif|central (ssRNA)
RNA: GGGAGUUCUACAGUCCGACGAUCGUGGUUAGACAGCUCCCCCAUAAGGAUGCGUAGACAAUUUCUCAGCUGUAGCUCCCGGAGCUUUCUCCGGAUCUCUCUCAUCUCCUCCAUGAACAUUUCCAUAUCAUCUCCAUCUCCACCCAACAGAGGAUUGAGCAUCA
B4: chr3:10015032:10015033:+_ENSMUSG00000027533_ENSMUST00000029046|mus_mus|mus_mus_mus_hu_True|38_68 (ssRNA)
RNA: GGGAGUUCUACAGUCCGACGAUCGUUUUUACCAUCACAAGUGAUGAUACAAUCUGGCUUGGCCAUUGCAGCCAUCUUUCGCAAAGCUAUUCCCACUCCUAGCUCUUUCAUGUAUUCAUCAAAGCCUUUGCUGUCCACCAGGCGCAACAGAGGAUUGAGCAUCA
B5: chr17:53623224:53623225:+_ENSMUSG00000017831_ENSMUST00000017975|perfect_dup|FALSE|FALSE (ssRNA)
RNA: GGGAGUUCUACAGUCCGACGAUCGGCCCGUUGGGUCUUGUUGCUCCUCGAUUAGCCAUGUCCAAAUUUUAAAGAAGUCCCUAAUUUCAGAUUCCUAAAUGAACUUCCAGGAUGCAAGGCAUUAAUUUUGUUUUCUUUCUGGAGCAACAGAGGAUUGAGCAUCA
B6: chrX:12171913:12171914:+_ENSMUSG00000031007_ENSMUST00000033313|perfect_dup|motif|central (ssRNA)
RNA: GGGAGUUCUACAGUCCGACGAUCCCUGGUAUAGGCCAAUUUCCAUUUCGGAAAACAACAGACCCUGGCGAUCUUAAUAUGCGGAAUUCAUUCCCUAAAGCACCCGCCACCAGAAAGAACAGGAGAACGACCAGCACAGCCAUGCAACAGAGGAUUGAGCAUCA
B7: 44958381_44959107_521_CDS_ENSG00000175274_ENST00000395648|human|control|control (ssRNA)
RNA: GGGAGUUCUACAGUCCGACGAUCGGGGGUCUUGCUGGUCACCUGGGCUCCAUCAAAGACCGCAUCAUAGAGCUGGUCAGGGAAGGCAAGCGCCAUGAUGGCAAUGCCGGAGAAGAGCACAGCAGAGACGAACUGCCAGACCCUCAACAGAGGAUUGAGCAUCA
B8: chr12:111951244:111951245:-_ENSG00000204842_ENST00000535949|hu_hu|motif|central (ssRNA)
RNA: GGGAGUUCUACAGUCCGACGAUCUCUUGGAACCCCACUGACCACUGAUGACCACGUUCCCCCCGAGGGACUGGUCCUUGCGGCUGGAGGAGUAGCUGCUUCACUGGGUGGGUUGUGGGAUACAAAUUCUAGGCCACUGGAUAUCAACAGAGGAUUGAGCAUCA
B9: chr4:21803547:21803548:+_ENSMUSG00000028248_ENSMUST00000098238|mus_mus|FALSE|FALSE (ssRNA)
RNA: GGGAGUUCUACAGUCCGACGAUCUUCACUUGAAGAGUAAUCUAAAACACUUUAAGGUAUGAAAAUUUUAUACAACUUAUCUAUUACAAAUUAAUCAGAAUUCUUCAAUUAGAUACACUGUGUUAGCUCACCUACAUAAAAAAUCAACAGAGGAUUGAGCAUCA
B10: 35793348_35793468_435_3pUTR_ENSMUSG00000016534_ENSMUST00000061755|mouse|control|control (ssRNA)
RNA: GGGAGUUCUACAGUCCGACGAUCUUGUAGGAAAGCACGAUGUCAUGAAUUGAAUAAUGAGAUGCUUCCUUGGUAAAAUUCACAGCCCAAGAGACAGCGAAUCCAAAUUGUAUCAUUAUUUUGGCACUAUUCCGGUCAUCCCCACAACAGAGGAUUGAGCAUCA
B11: chr7:54823571:54823572:-_ENSG00000132432_ENST00000352861|hu_mus|hu_hu_hu_mus_False|1_88 (ssRNA)
RNA: GGGAGUUCUACAGUCCGACGAUCUCCCAUGAUAGCAAAUCCUAUAGCUGUUGCCAUGGCAAUCUUCUGGAAUUCUUUUCUGUCGGGUUUGGUGCAUCUUUUAACCAGCCGAAUUGAGUCCUUUACAAACUGCCGGCUUGGCUCCAACAGAGGAUUGAGCAUCA
B12: chr8:21961785:21961786:+_ENSG00000158863_ENST00000289921|hu_hu|motif|central (ssRNA)
RNA: GGGAGUUCUACAGUCCGACGAUCGCACUGAGGAGAGGGGAGGGUCUGUGACUCCCAAACCCUCGAAUAUUUUAUGAAUCGGAGAGUCCAGACGCAGUUCAUCCACGGAGAUCUGCGCCCCGUCCACACCAACACCCACGUUUGCAACAGAGGAUUGAGCAUCA
B13: chr10:107688926:107688927:+_ENSMUSG00000019907_ENSMUST00000070663|mus_mus|motif|central (ssRNA)
RNA: GGGAGUUCUACAGUCCGACGAUCUUCAUUGAUCGAACUAUUCUUUUUAAGAUCAUCUUCCCAUUUUCUUCUUGUGUAAGAACGGCUUGUUCGCAAACUUGAAGACUCUCUGUUCUCCUUCUCUUCAAUGUCAGAUGUACUGGCCAACAGAGGAUUGAGCAUCA
B14: chr2:65539780:65539781:-_ENSG00000198369_ENST00000356388|hu_hu|FALSE|FALSE (ssRNA)
RNA: GGGAGUUCUACAGUCCGACGAUCUUUGCAAAACAACAAGCAAAAUUUCUUACUUCACUAGUAUCCUAUUCUAAUAUUGCUAAAUUUUUAGAAGUGGUGGCAACACAAUUUAAAAAAUGUUCUACUUUAGGGGUAAUGGGGAGGCAACAGAGGAUUGAGCAUCA
B15: chr14:76904430:76904431:+_ENSMUSG00000022010_ENSMUST00000022587|mus_mus|mus_mus_mus_hu_True|1_18 (ssRNA)
RNA: GGGAGUUCUACAGUCCGACGAUCUGCAGCCAAAAACACCCUCGUGGAAAAAAAGAGGGAACACCAGCAGCCUUGUAUAAGCUAGAUAAAAUCUUCUGGCUUUCCGCAGCCCAGGGAGUGAGAACGGACGGCAGCCCUCGAGUGCAACAGAGGAUUGAGCAUCA
B16: chr15:80415083:80415084:+_ENSG00000086666_ENST00000558494|hu_hu|FALSE|FALSE (ssRNA)
RNA: GGGAGUUCUACAGUCCGACGAUCAUCUUCUGUUUCAGGUACUGCUUUGUCCACAGAUGUACUGUCCAAUUGAGAAGAUGCUACAGAUUCUGAUAAAAGUGACUGAUUUGAUACAGGGCUGGGCUGCAUAGAUGAAGAUGUAGACAACAGAGGAUUGAGCAUCA
B17: 123345274_123345525_2894_CDS_ENSG00000130787_ENST00000253083|human|control|control (ssRNA)
RNA: GGGAGUUCUACAGUCCGACGAUCAUUGACUGUGCGAGAACAUUCCUGCAGGCGGCUCAGGUGGGGGCUGUGCUUGUUGGCCUUCACCUUGGAGGCCGCCACCAGCUGGGCCGUGCUGGCUGCGAUCUCGUGGGAGCAGACGAUCAACAGAGGAUUGAGCAUCA
B18: chr11:22897662:22897663:+_ENSMUSG00000007739_ENSMUST00000173867|mus_mus|FALSE|FALSE (ssRNA)
RNA: GGGAGUUCUACAGUCCGACGAUCGCAAAACUGAAUAAGCCCAAUCUUAGCCUUUUCAACUCUUGUUAUGCCAGAAUUUGCUACUUUCUGUGUGAGAACGAGGCCUUCCACCAGCUCACAGUCAUCUAUUGUCCCACCAAGCUUCAACAGAGGAUUGAGCAUCA
B19: chr11:118639009:118639010:-_ENSG00000110367_ENST00000264018|hu_hu|FALSE|FALSE (ssRNA)
RNA: GGGAGUUCUACAGUCCGACGAUCUUCAAGUAAGGGAAUGAGGUAGGCACCGCUCUUGCCUGUUCCAUUUUUUGCUCUAGCUAAGAUAUCCCUACCAGAUAAAGCAAUGGGAAUGCUCUCCUCCUGAAUAGGAGAUGGCUUUUCCAACAGAGGAUUGAGCAUCA
B20: chr19:8913615:8913616:-_ENSMUSG00000071658_ENSMUST00000096259|mus_mus|FALSE|FALSE (ssRNA)
RNA: GGGAGUUCUACAGUCCGACGAUCGAGGGGGCACCAAACCCUGCCUCAGAUAGGUGCCCCACCCUGCCAGGACUUGGAGCUAAAAAUAUCCGUAGCACUGACAGUUAAUGCAGAGAAGGUCACUAGAGAUGCUCAGACGAGAUCCAACAGAGGAUUGAGCAUCA
B21: chr12:39756943:39756944:-_ENSG00000139116_ENST00000544797|hu_mus|hu_hu_hu_mus_False|18_28 (ssRNA)
RNA: GGGAGUUCUACAGUCCGACGAUCGGUUUGGCUGUUACCCCCAAGGGAAUCCUGCAAGAGUCUUGUCAGCUUAGAGUCUCUGUAAGGGACAUGGGUGGCUCUCUUGCUCUUGUCUCCCAAGGCACUUAUUACAUUCCCAAGAGCCAACAGAGGAUUGAGCAUCA
B22: chr14:27472611:27472612:+_ENSMUSG00000021877_ENSMUST00000022429|perfect_dup|motif|central (ssRNA)
RNA: GGGAGUUCUACAGUCCGACGAUCUUCCAGAAGCAUUUUCUGCAGCACAGCUGCUCCUUCCUGGAUUCUUUCACGAUCAUUGCGGUCGGCCACAAAAAUGAGACCCUGGGUAUUCUGGAAGUAAUGCCUCCAGAGAGGCCUAAUCAACAGAGGAUUGAGCAUCA

Target: T1, UNK ZnF1-3
Assay: nsRBNS (natural sequence RNA bind-n-seq); RBNS binding buffer (assumed for nsRBNS): 25 mM Tris pH 7.5, 150 mM KCl, 3 mM MgCl2, 0.01% Triton X-100, 500 ug/ml BSA, 20 U/ml SUPERase-In, 4 C; UNK is unkempt and MSI1 is Musashi-1; names of the RNAs are library labels; protein concentration not given here; high values mean tight binding

Row | Binder | binding signal [enrichment R]
1 | B1 | 1.08
2 | B2 | 1.19
3 | B3 | 1.17
4 | B4 | 0.773
5 | B5 | 1.09
6 | B6 | 1.44
7 | B7 | 1.14
8 | B8 | 0.716
9 | B9 | 1.59
10 | B10 | 1.24
11 | B11 | 0.621
12 | B12 | 1.1
13 | B13 | 0.374
14 | B14 | 3.03
15 | B15 | 1.76
16 | B16 | 1.28
17 | B17 | 0.434
18 | B18 | 0.875
19 | B19 | 0.817
20 | B20 | 1.47
21 | B21 | 0.77
22 | B22 | 0.773
